According to PubChem BioAssay AID360 (National Center for Advancing Translational Sciences (NCATS), 2006):
Hit rate of the full screen: of about 48,000 compounds, about 550 (1.1%) were called active. Inconclusive results (about 4%) are left out. No stated cut-off is given here; in the data, active means potency below about 15 µM; inconclusive means mostly about 16 µM to 33 µM; inactive means weaker than that. This is one part of the list.

target: Lysosomal acid glucosylceramidase (Homo sapiens) (UniProt P04062); experiment: Glucocerebrosidase; details: purified enzyme, resorufin glucoside fluorescence (screen aimed at inhibitors), 20 min;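 further: the screen sought inhibitors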
Sequence of UniProt P04062 (P04062 whole entry, looked up): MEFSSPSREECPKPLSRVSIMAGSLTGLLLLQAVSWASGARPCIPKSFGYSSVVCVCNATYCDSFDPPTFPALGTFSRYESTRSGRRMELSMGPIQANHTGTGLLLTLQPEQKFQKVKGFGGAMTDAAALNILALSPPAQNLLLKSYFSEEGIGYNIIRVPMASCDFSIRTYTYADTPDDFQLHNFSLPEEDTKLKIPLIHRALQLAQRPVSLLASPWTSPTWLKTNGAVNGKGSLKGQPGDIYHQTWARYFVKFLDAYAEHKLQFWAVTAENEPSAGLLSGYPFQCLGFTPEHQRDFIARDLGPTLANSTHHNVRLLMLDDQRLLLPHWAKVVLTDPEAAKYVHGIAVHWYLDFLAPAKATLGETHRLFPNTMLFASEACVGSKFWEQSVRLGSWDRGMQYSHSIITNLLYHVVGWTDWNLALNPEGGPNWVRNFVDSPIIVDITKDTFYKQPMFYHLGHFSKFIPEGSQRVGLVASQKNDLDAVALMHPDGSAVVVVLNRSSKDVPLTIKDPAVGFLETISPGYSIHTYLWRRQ
Procedure, shortened: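 Wild-type enzyme at 0.2 nM final in 50mM citric acid/KH2PO4, 10mM sodium taurocholate, 0.01% tween-20, pH 5.9, with resorufin beta-D-glucopyranoside at 30 uM final. Compounds titrated, 20 min at RT, red fluorescence read; AC50 from titration.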
Potency means the concentration at half of the fitted maximal effect.

Potency, inactive:
CC(=O)Nc1cccc(-c2nnc(SCC(=O)N3CCCCC3)n2C)c1 > 76.9 µM, O=c1c2ccccc2nc2ccc(NCc3ccco3)nn12 > 76.9 µM, Cn1c(-c2ccc(CN3CCCCC3)o2)nc2ccccc21 > 76.9 µM, CCOc1ccc(C2CC(=O)NC3=C2C(=O)CCC3)cc1Cl (stereo not given) > 76.9 µM, c1ccc(CSc2nnc(-c3c[nH]c4ccccc34)o2)cc1 > 76.9 µM, COc1cccc(CNCC(=O)N2C(C)CCCC2C)c1 (stereo not given), O=C(CSc1nnnn1Cc1ccccc1)NCCc1ccccc1 > 76.9 µM, CC(=NC(C)C)C1=C(O)CCC1=O > 76.9 µM, Cn1c(=O)c2cc(S(=O)(=O)NCCC(=O)NCCC3=CCCCC3)ccc2n(C)c1=O > 76.9 µM, COc1cccc(NC(=O)CSc2nc3ccccc3c(=O)n2CCCC(=O)N2CCCC2)c1 > 76.9 µM, Cn1c(=O)[nH]c(=O)c2c1nc(Br)n2CCC(=O)c1ccccc1 > 76.9 µM, CC(=O)Nc1ccc(C(=O)CSc2nc3ccccc3n2CC(=O)N2CCCC2)cc1 > 76.9 µM, CN(CC(=O)NC1CCCCC1)S(=O)(=O)c1ccc(Cl)cc1 > 76.9 µM, Cc1ccsc1C1CC(=O)NC2=C1C(=O)CC(C)(C)C2 (stereo not given) > 76.9 µM, Cn1ncc(N)c1C(=O)Nc1cccc(C(F)(F)F)c1 > 76.9 µM, CCOC(=O)c1cccc(NC(=O)N[C@@H](C)C(=O)OC)c1 > 76.9 µM, CCn1c(SCC(=O)NCCc2ccc(Cl)cc2)nnc1-c1cccs1 > 76.9 µM, O=C1c2ccccc2C(=O)N1CCC(=O)N1CCCc2ccccc21 > 76.9 µM, Oc1ccccc1-c1cc(-c2cccc(F)c2)n[nH]1 > 76.9 µM, CCOc1ccc(NC(=O)c2ccncc2)cc1, CC(C)NC(=O)c1nc2ccccc2s1, O=C(Nn1cnnc1)C(Sc1ccccc1)c1ccccc1 (stereo not given) > 76.9 µM, COc1ccc(-c2cc3nc4n(c(=O)c3s2)CCC4)cc1 > 76.9 µM, COc1ccc(C2=NO[C@@H]3C(=O)N(c4c(C)cccc4C)C(=O)[C@H]23)cc1OC > 76.9 µM, CCC(C)[C@H](NC(=O)NCc1cccs1)C(=O)OC (stereo not given in full) > 76.9 µM, COCCNC(=O)CN(c1ccc(C)cc1)S(=O)(=O)c1ccccc1 > 76.9 µM, O=C(OCc1nc(-c2ccccc2)oc1COC(=O)c1ccco1)c1ccco1 > 76.9 µM, COc1ccc(C(=O)n2nc(-c3ccccc3)nc2N)cc1OC > 76.9 µM, O=C(OCc1cc2ccccc2[nH]c1=O)c1ccccn1 > 76.9 µM, CN(Cc1ccccc1)C(=O)c1cccc(NC(=O)c2ccco2)c1 > 76.9 µM, CCOCCCNC(=O)C1CCN(S(=O)(=O)N2CCCCC2)CC1 > 76.9 µM, CCN1CCCC1CNC(=O)C1c2ccccc2C(=O)N(CCOC)C1c1ccc(F)cc1 (stereo not given) > 76.9 µM, CCNC(=O)NC(C(=O)OC)C12CC3CC(CC(C3)C1)C2 (stereo not given) > 76.9 µM, CSc1ccc(S(=O)(=O)Nc2c(C)cccc2C)cc1 > 76.9 µM, Cc1cc(N2CCN(C(c3ccccc3)c3ccccc3)CC2)n2ncnc2n1 > 76.9 µM, CCS(=O)(=O)N1CCC(C(=O)N2CCN(c3ccccc3)CC2)CC1 > 76.9 µM, CCOC(=O)C1CCCN(Cc2nc(N)nc(Nc3ccccc3)n2)C1 (stereo not given) > 76.9 µM, CCOC(=O)N1CCN(Cc2cc(=O)oc3ccc(Cl)cc23)CC1 > 76.9 µM, O=C1[C@@H]2Cc3ccccc3CN2C(=O)N1c1cccc(F)c1 > 76.9 µM, Cc1ccc(N2C(=O)c3ccccc3C2=O)cc1Cl > 76.9 µM, Cc1ccc(S(=O)(=O)N2CCOCC2)cc1C(=O)NCc1ccco1 > 76.9 µM, CCN(CC)CCCN1C(=O)c2oc3ccccc3c(=O)c2C1c1cccnc1 (stereo not given) > 76.9 µM, COC(=O)c1nc(C(=O)OC)c(C(=O)OC)nc1C(=O)OC > 76.9 µM, Cc1cc(C(=O)N2CCCCCC2)cs1 > 76.9 µM, COc1ccc(-c2cc(C(F)(F)F)nc(SCC(=O)Nc3cc(C)on3)n2)cc1 > 76.9 µM, CN(C(=O)COC(=O)C1CCN(S(=O)(=O)c2cccs2)CC1)C1CCS(=O)(=O)C1 (stereo not given) > 76.9 µM, O=C1[C@@H]2C(c3ccccc3Cl)=NO[C@@H]2C(=O)N1Cc1ccccc1 > 76.9 µM, c1coc(-c2nc3nc4ccccc4n3nc2-c2ccco2)c1 > 76.9 µM, Cc1cc2c(c(=O)o1)C(C(C)C)C(C#N)=C(N)O2 (stereo not given) > 76.9 µM, O=C(Nc1ccc(Cl)cn1)c1ccc(COCC(F)(F)C(F)F)o1, COc1ccc2[nH]c(=O)c(CN(C(=O)c3ccccn3)c3ccccc3)cc2c1 > 76.9 µM, COc1ccc(N2CCN(c3oc(-c4ccco4)nc3C#N)CC2)cc1 > 76.9 µM, CC(C)(C)c1ccc(C(=O)N2CCC(C(=O)NCc3ccncc3)CC2)cc1 > 76.9 µM, COc1ccc(C2N3CC4(C)CN2CC(C)(C3)C4)cc1OC (stereo not given) > 76.9 µM, O=C(OCn1nnc2ccccc2c1=O)c1cn(-c2ccccc2)nc1-c1cccnc1 > 76.9 µM, Cc1cc(C(=O)O)ccc1-n1c(C)ccc1C > 76.9 µM, CCNC(=O)N1CCNC(=O)C1CC(=O)OC (stereo not given) > 76.9 µM, O=C(O)C1C2C=CC3(O2)C1C(=O)N1c2ccccc2C2OCCC2C13 (stereo not given) > 76.9 µM, CC(C)CCn1nnnc1C(c1ccc(F)cc1)N1CCC(C(N)=O)CC1 (stereo not given) > 76.9 µM

Potency, active:
c1ccc(-c2nnc(N3CCN(c4ccccn4)CC3)c3ccccc23)cc1 13.6 µM
